# Results taken from the supplement of paper PMC4166925.
# ± gives the standard deviation of the averaged measurements. Over roughly 33,000 sequences, “E-score (dimensionless, -0.5 to 0.5)” has its median near -0.049; the highest 2% begin near 0.37. The list shows a part of the results.
# Test system: T1, PmTbr T-box DNA-binding domain (GST fusion)
# T1 sequence: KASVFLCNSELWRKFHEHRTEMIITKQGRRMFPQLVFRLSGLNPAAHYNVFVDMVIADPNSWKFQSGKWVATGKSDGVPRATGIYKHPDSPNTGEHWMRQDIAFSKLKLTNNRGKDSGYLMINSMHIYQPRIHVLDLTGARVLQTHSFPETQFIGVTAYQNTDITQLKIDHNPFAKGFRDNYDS
# Assay: PBM E-score of 8-mer (E-score (dimensionless, -0.5 to 0.5)); Tbr is Tbrain of the sea star Patiria miniata (Pm) or the sea urchin Strongylocentrotus purpuratus (Sp); higher = stronger binding preference; most listed sequences are background and not binding sites
# Settings: the construct has about 5 more residues each side
# Method in brief: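 Universal Agilent oligonucleotide arrays, made double-stranded by primer extension, were incubated with 200 nM GST-fused Tbr T-box DNA-binding domain in PBS (pH 7.5). The protein was expressed in BL21 E. coli at 20 °C and purified by glutathione affinity chromatography. After scanning and quantification, the Universal PBM Analysis Suite assigned an enrichment E-score to each ungapped 8-mer, averaged over duplicate arrays.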
row,Sequence,PBM E-score of 8-mer
1,CCCTAGGA,-0.0775 ± 0.091
2,ACCAGGAC,-0.0452 ± 0.062
3,ACAAGAAA,-0.234 ± 0.025
4,AGAATGAG,-0.241 ± 0.0046
5,AGGCGAGA,0.401 ± 0.011
6,CGTAGGAC,-0.0714 ± 0.064
7,CCTTTCTA,-0.0136 ± 0.013
8,GACACAAA,0.124 ± 0.036
9,CTCGTGCA,-0.00814 ± 0.022
10,CGGAATCC,-0.269 ± 0.006
11,CGCGATAC,0.244 ± 0.01
12,AATCCATA,-0.162 ± 0.027
13,GCTTACTA,-0.228 ± 0.036
14,ACAACGGG,0.0346 ± 0.029
15,AGAATCAC,0.171 ± 0.015
16,CCACGTCG,-0.0145 ± 0.18
17,CGACTAGA,-0.146 ± 0.037
18,CCAGGCTA,-0.0803 ± 0.0093
19,ACTCACCG,-0.0077 ± 0.1
20,CATTTGAC,-0.08 ± 0.12
21,CCGACGGA,-0.182 ± 0.0088
22,GTAGGACA,-0.0977 ± 0.038

row,Sequence,PBM E-score of 8-mer
1,CTTGAGCA,-0.0771 ± 0.029
2,ACGGCAAT,-0.103 ± 0.029
3,CAGGCTCG,0.116 ± 0.065
4,TCACGTGA,0.236 ± 0.029
5,GTCCCAAA,-0.248 ± 0.049
6,CTAACTAC,-0.0809 ± 0.0053
7,GCGACTCA,0.148 ± 0.019
8,GGAACAAA,-0.232 ± 0.012
9,GAAAATTA,-0.0611 ± 0.15
10,CTAGGACC,-0.15 ± 0.0081
11,AGTAGAGA,-0.165 ± 0.0094
12,TACCGGAA,-0.0972 ± 0.041
13,CTCGGTAC,-0.0869 ± 0.017
14,CCCGACAA,0.208 ± 0.044
15,CCCGCGTA,-0.15 ± 0.1
16,ACAATGGG,-0.0639 ± 0.019
17,GCGCTCAC,0.195 ± 0.0064
18,CGTCTGTA,-0.0955 ± 0.033
19,AGTATAAA,-0.14 ± 0.1
20,AGGATGAA,-0.1541 ± 0.00086
21,ATGGGCAC,-0.159 ± 0.019
22,GAGCGGGC,-0.00946 ± 0.086

row,Sequence,PBM E-score of 8-mer
1,AAAGCTCA,-0.089 ± 0.062
2,AGACAATC,-0.0393 ± 0.0034
3,GAAACCCA,-0.00855 ± 0.087
4,CTTAACAA,0.201 ± 0.041
5,AGTCCCGG,0.00453 ± 0.0029
6,ATCTGTTG,0.0136 ± 0.072
7,TGAGACCA,0.0461 ± 0.0096
8,CACGTTAA,0.11 ± 0.056
9,AGCTGCGG,-0.217 ± 0.013
10,GCGCTATA,0.098 ± 0.016
11,ACAGATCG,0.14 ± 0.035
12,CTGCACGC,-0.137 ± 0.069
13,AAGCCTAG,-0.334 ± 0.0092
14,GCTTATAA,-0.267 ± 0.046
15,ACCGCAGA,-0.332 ± 0.019
16,TCTCGAGA,-0.0629 ± 0.12
17,AGATCAAT,-0.126 ± 0.013
18,AGGTCTAT,-0.33 ± 0.011
19,CTATATGC,-0.00958 ± 0.015
20,CGACGCTA,0.0458 ± 0.006
21,GATCTAGC,-0.0665 ± 0.024
22,CCGATAAG,-0.0389 ± 0.043

row,Sequence,PBM E-score of 8-mer
1,AGCCGAGG,0.0772 ± 0.059
2,AATTTGAA,-0.207 ± 0.01
3,ACATGTTA,0.0442 ± 0.067
4,CTAGTATC,-0.0952 ± 0.011
5,AACATACT,-0.16 ± 0.059
6,CATAAGCA,0.0844 ± 0.044
7,TAACACCA,0.451 ± 0.0075
8,AGGTGTGC,0.44 ± 0.0051
9,ACATTATG,-0.0843 ± 0.037
10,AGCCTTAG,-0.287 ± 0.056
11,GATTGAAA,-0.189 ± 0.023
12,CCCGTGCA,-0.027 ± 0.095
13,CCTCAGAG,0.0428 ± 0.073
14,TACGCGCA,0.0284 ± 0.0022
15,ACGACAGT,0.118 ± 0.015
16,AATACTCA,-0.0996 ± 0.0042
17,GTCCCAGA,-0.298 ± 0.061
18,AGTCTGGC,-0.247 ± 0.019
19,CGAACATC,-0.0434 ± 0.053
20,CTCACGAC,0.115 ± 0.021
